Where two headings read alike, the source gives them in different places.
Key:
[1] = target: T1, human Retinoid X Receptor alpha-Ligand Binding Domain (hRXRα-LBD, T223–T462) homodimer (human, UniProt P19793 223-462); assay: ITC
T1 sequence: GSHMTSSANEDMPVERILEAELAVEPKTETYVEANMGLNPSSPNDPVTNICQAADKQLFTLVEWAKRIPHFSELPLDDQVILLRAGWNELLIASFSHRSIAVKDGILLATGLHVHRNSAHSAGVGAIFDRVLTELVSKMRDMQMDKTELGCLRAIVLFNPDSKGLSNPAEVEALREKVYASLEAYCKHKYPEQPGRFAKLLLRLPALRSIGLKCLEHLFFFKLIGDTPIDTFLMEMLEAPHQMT

[2] = target: T1, human Retinoid X Receptor alpha-Ligand …; assay: ITC; remark: listed apart in the source
[3] = target: T1, human Retinoid X Receptor alpha-Ligand …; assay: ITC; remark: listed apart in the source
[4] = target: T1, human Retinoid X Receptor alpha-Ligand …; assay: ITC; remark: listed apart in the source
[5] = target: T1, human Retinoid X Receptor alpha-Ligand …; assay: far-UV CD titration

Kd [1]: 470 ± 20 nM | dH [1]: -6.78 ± 0.02 kcal/mol | stoichiometry N [1]: 0.98 | Kd [2]: 550 ± 20 nM | dH [2]: -9.15 ± 0.03 kcal/mol | stoichiometry N [2]: 0.92 | Kd [3]: 720 ± 10 nM | dH [3]: -11.13 ± 0.03 kcal/mol | stoichiometry N [3]: 0.95 | dH [4]: -13.65 ± 0.04 kcal/mol | stoichiometry N [4]: 0.93 | Kd [5]: ~900 nM
Binder: KHKILHRLLQDSS

— paper PMC3081989 (Biochemistry, 2010)
